Source: the supplement of paper PMC8728848
The other results are listed elsewhere or left out.

Tests used:
Assay in all cases: glycan array binding signal (z-score within array); higher = stronger binding
Conditions in all cases: glycan notation: IUPAC condensed, linker removed
[1] = target: Neu5Ac(a2-6)Gal(b1-4)GlcNAc(b1-2)Man(a1-3)Man(b1-4)GlcNAc(b1-4)GlcNAc
Summary of the method: (§1)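 From the Consortium for Functional Glycomics database, 3228 arrays were curated, keeping only those whose protein sequence was available. Binding is given as a within-array Z-score averaged across arrays sharing a protein sequence and across linkers. Negative Z-scores can be read as non-binding.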

[2] = target: Neu5Ac(a2-6)Gal(b1-4)GlcNAc(b1-2)Man(a1-3)[Gal(b1-4)GlcNAc(b1-2)Man(a1-6)]Man(b1-4)GlcNAc(b1-4)GlcNAc
Summary of the method: as §1

[3] = target: Neu5Ac(a2-6)Gal(b1-4)GlcNAc(b1-2)Man(a1-3)[GlcNAc(b1-2)Man(a1-6)]Man(b1-4)GlcNAc(b1-4)GlcNAc
Summary of the method: as §1

[4] = target: Neu5Ac(a2-6)Gal(b1-4)GlcNAc(b1-2)Man(a1-3)[GlcNAc(b1-2)Man(b1-4)GlcNAc(b1-2)Man(a1-6)]Man(b1-4)GlcNAc(b1-4)GlcNAc
Summary of the method: as §1

[5] = target: Neu5Ac(a2-6)Gal(b1-4)GlcNAc(b1-2)Man(a1-3)[Man(a1-6)]Man(b1-4)GlcNAc(b1-4)GlcNAc
Summary of the method: as §1

[6] = target: Neu5Ac(a2-6)Gal(b1-4)GlcNAc(b1-2)Man(a1-3)[Neu5Ac(a2-6)Gal(b1-4)GlcNAc(b1-2)Man(a1-6)]Man(b1-4)GlcNAc(b1-4)GlcNAc
Summary of the method: as §1

[7] = target: Neu5Ac(a2-6)Gal(b1-4)GlcNAc(b1-2)Man(a1-6)Man(b1-4)GlcNAc(b1-4)GlcNAc
Summary of the method: as §1

[8] = target: Neu5Ac(a2-6)Gal(b1-4)GlcNAc(b1-2)Man(a1-6)[Gal(b1-4)GlcNAc(b1-2)Man(a1-3)]Man(b1-4)GlcNAc(b1-4)GlcNAc
Summary of the method: as §1

[9] = target: Neu5Ac(a2-6)Gal(b1-4)GlcNAc(b1-2)Man(a1-6)[GlcNAc(b1-2)Man(a1-3)]Man(b1-4)GlcNAc(b1-4)GlcNAc
Summary of the method: as §1

[10] = target: Neu5Ac(a2-6)Gal(b1-4)GlcNAc(b1-2)Man(a1-6)[Man(a1-3)]Man(b1-4)GlcNAc(b1-4)GlcNAc
Summary of the method: as §1

[11] = target: Neu5Ac(a2-6)Gal(b1-4)GlcNAc(b1-3)Gal(b1-3)GlcNAc
Summary of the method: as §1

[12] = target: Neu5Ac(a2-6)Gal(b1-4)GlcNAc(b1-3)Gal(b1-4)GlcNAc
Summary of the method: as §1

[13] = target: Neu5Ac(a2-6)Gal(b1-4)GlcNAc(b1-3)Gal(b1-4)GlcNAc(b1-3)Gal(b1-4)GlcNAc
Summary of the method: as §1

[14] = target: Neu5Ac(a2-6)Gal(b1-4)GlcNAc(b1-3)Gal(b1-4)[Fuc(a1-3)]GlcNAc(b1-3)Gal(b1-4)[Fuc(a1-3)]GlcNAc
Summary of the method: as §1

[15] = target: Neu5Ac(a2-6)Gal(b1-4)GlcNAc(b1-3)GalNAc
Summary of the method: as §1

[16] = target: Neu5Ac(a2-6)Gal(b1-4)GlcNAc6S
Summary of the method: as §1

[17] = target: Neu5Ac(a2-6)GalNAc
Summary of the method: as §1

[18] = target: Neu5Ac(a2-6)GalNAc(b1-4)GlcNAc
Summary of the method: as §1

[19] = target: Neu5Ac(a2-6)GlcNAc(b1-4)GlcNAc
Summary of the method: as §1

[20] = target: Neu5Ac(a2-6)GlcNAc(b1-4)GlcNAc(b1-4)GlcNAc
Summary of the method: as §1

[21] = target: Neu5Ac(a2-8)Neu5Ac
Summary of the method: as §1

[22] = target: Neu5Ac(a2-8)Neu5Ac(a2-3)Gal(b1-4)Glc
Summary of the method: as §1

[23] = target: Neu5Ac(a2-8)Neu5Ac(a2-3)[GalNAc(b1-4)]Gal(b1-4)Glc
Summary of the method: as §1

[24] = target: Neu5Ac(a2-8)Neu5Ac(a2-8)Neu5Ac
Summary of the method: as §1

[25] = target: Neu5Ac(a2-8)Neu5Ac(a2-8)Neu5Ac(a2-3)Gal(b1-4)Glc
Summary of the method: as §1

[26] = target: Neu5Ac(a2-8)Neu5Ac(a2-8)Neu5Ac(a2-3)[GalNAc(b1-4)]Gal(b1-4)Glc
Summary of the method: as §1

[27] = target: Neu5Ac(a2-8)Neu5Ac(a2-8)Neu5Ac(a2-8)Neu5Ac(a2-3)[GalNAc(b1-4)]Gal(b1-4)Glc
Summary of the method: as §1

[28] = target: Neu5Ac(b2-6)Gal(b1-4)GlcNAc
Summary of the method: as §1

[29] = target: Neu5Ac(b2-6)GalNAc
Summary of the method: as §1

[30] = target: Neu5Ac9Ac(a2-3)Gal(b1-3)GlcNAc
Summary of the method: as §1

[31] = target: Neu5Ac9Ac(a2-3)Gal(b1-4)GlcNAc
Summary of the method: as §1

[32] = target: Neu5Ac9Ac(a2-6)Gal(b1-4)GlcNAc
Summary of the method: as §1

[33] = target: Neu5Gc(a2-3)Gal(b1-3)GlcNAc
Summary of the method: as §1

[34] = target: Neu5Gc(a2-3)Gal(b1-3)[Fuc(a1-4)]GlcNAc
Summary of the method: as §1

[35] = target: Neu5Gc(a2-3)Gal(b1-4)Glc
Summary of the method: as §1

[36] = target: Neu5Gc(a2-3)Gal(b1-4)GlcNAc
Summary of the method: as §1

[37] = target: Neu5Gc(a2-3)Gal(b1-4)[Fuc(a1-3)]GlcNAc
Summary of the method: as §1

[38] = target: Neu5Gc(a2-6)Gal(b1-4)GlcNAc
Summary of the method: as §1

[39] = target: Neu5Gc(a2-6)GalNAc
Summary of the method: as §1

[40] = target: Neu5Gc(b2-6)Gal(b1-4)GlcNAc
Summary of the method: as §1

B1: Lmo1413 (Listeria monocytogenes), Q8Y783 (protein)
chain: MKHAKKSLFTFIIFMTILSITFNPFSAKAAPLMLNLPAPQVDQLYIGDDYITGKLQQEVPMHYPGNAAYVLFNNKQYNITDYTVENDVNFRLKLPKTLEAGDTLNYFTITGNVLDPVAYPGQESYKLAGPFSPIEKANIQVNYVDETNQTLATSDTLSGKLGETYTTSPKAIDGYQVKETPTNATGTYTTNTETIQINYVYEKTAVEGANVSVEYINEATNESIAPTETLSGKIGTTFQAEVKEIDGYELSQVPSNQSGTYTDQTQSVIFKYKKITTPDEVAKDVTVTYKDTKGNQLADPVILKGDIGSTFETEAKSFKGYKLTKTPSNHSSVFTSDSQEVEYVYSKDDAVITPPVTPVNPDKPIINPVKPVNPATSTVPNKNISKKNTTKTVNQTGKTSTALQLPKTGDSENNLPLIIGVSLLISGVYIFTTRRKRVK
B1 was tested, and the “glycan array binding signal (z-score)” value [1] was -0.246, the “glycan array binding signal (z-score)” value [2] was -0.261 and the “glycan array binding signal (z-score)” value [3] was -0.241. The “glycan array binding signal (z-score)” value [4] was -0.269, the “glycan array binding signal (z-score)” value [5] was -0.259 and the “glycan array binding signal (z-score)” value [6] was -0.268. For the same binder, the “glycan array binding signal (z-score)” value [7] was -0.266, the “glycan array binding signal (z-score)” value [8] was -0.282 and the “glycan array binding signal (z-score)” value [9] was -0.272. The “glycan array binding signal (z-score)” value [10] was -0.265, the “glycan array binding signal (z-score)” value [11] was -0.26 and the “glycan array binding signal (z-score)” value [12] was -0.206. For the same binder, the “glycan array binding signal (z-score)” value [13] was -0.122, the “glycan array binding signal (z-score)” value [14] was -0.196 and the “glycan array binding signal (z-score)” value [15] was -0.219. The “glycan array binding signal (z-score)” value [16] was -0.248, the “glycan array binding signal (z-score)” value [17] was 0.061 and the “glycan array binding signal (z-score)” value [18] was -0.237. The “glycan array binding signal (z-score)” value [19] was -0.193, the “glycan array binding signal (z-score)” value [20] was -0.222 and the “glycan array binding signal (z-score)” value [21] was -0.2. The “glycan array binding signal (z-score)” value [22] was -0.262, the “glycan array binding signal (z-score)” value [23] was -0.22 and the “glycan array binding signal (z-score)” value [24] was -0.268. For the same binder, the “glycan array binding signal (z-score)” value [25] was -0.246, the “glycan array binding signal (z-score)” value [26] was -0.239 and the “glycan array binding signal (z-score)” value [27] was -0.214. The “glycan array binding signal (z-score)” value [28] was -0.209, the “glycan array binding signal (z-score)” value [29] was -0.028 and the “glycan array binding signal (z-score)” value [30] was -0.204. The “glycan array binding signal (z-score)” value [31] was -0.267, the “glycan array binding signal (z-score)” value [32] was -0.263 and the “glycan array binding signal (z-score)” value [33] was -0.192. The “glycan array binding signal (z-score)” value [34] was -0.249, the “glycan array binding signal (z-score)” value [35] was -0.252 and the “glycan array binding signal (z-score)” value [36] was -0.208. The “glycan array binding signal (z-score)” value [37] was -0.201, the “glycan array binding signal (z-score)” value [38] was -0.254 and the “glycan array binding signal (z-score)” value [39] was 0.2. For the same binder, the “glycan array binding signal (z-score)” value [40] was -0.209.
